Source: the supplement of paper PMC3334620
Over roughly 33,000 sequences, “E-score (-0.5 to 0.5)” has its median near -0.016; the highest 2% begin near 0.32. Some of the results follow.

The sequences below were run against T1, Stp1 (UniProt B3LFK1) (assay: PBM E-score (8-mer binding enrichment) (E-score (-0.5 to 0.5)); higher = stronger / more preferred TF binding; most listed sequences are background and not binding sites). Details: protein concentration: 200 nM; construct: GST-full length.
T1 sequence: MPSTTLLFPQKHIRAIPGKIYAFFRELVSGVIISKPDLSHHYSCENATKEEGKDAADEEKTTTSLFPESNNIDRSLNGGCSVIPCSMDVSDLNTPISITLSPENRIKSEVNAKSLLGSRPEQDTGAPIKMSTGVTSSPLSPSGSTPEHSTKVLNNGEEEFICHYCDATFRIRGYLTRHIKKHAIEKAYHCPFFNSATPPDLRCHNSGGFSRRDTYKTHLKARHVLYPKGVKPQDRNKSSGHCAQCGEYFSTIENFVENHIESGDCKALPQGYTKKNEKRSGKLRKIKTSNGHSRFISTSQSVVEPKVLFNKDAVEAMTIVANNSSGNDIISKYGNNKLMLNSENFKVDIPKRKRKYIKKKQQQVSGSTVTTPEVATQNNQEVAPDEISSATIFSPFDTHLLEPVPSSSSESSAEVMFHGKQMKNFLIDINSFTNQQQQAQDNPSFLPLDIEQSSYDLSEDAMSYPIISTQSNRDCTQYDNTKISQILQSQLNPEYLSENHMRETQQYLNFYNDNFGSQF
Method in brief: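 For each ungapped eight-base word taken together with its reverse complement, the Universal PBM Analysis Suite assigned an E-score. Binding data came from GST-tagged yeast transcription factors, applied at about 100-200 nM, on universal all-10-mer Agilent arrays made double-stranded by primer extension. Fluorescent anti-GST marked bound protein, and scans were normalised with masliner.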

Row | Sequence | PBM E-score
1 | CGTGGTAC | -0.128
2 | ACCGTGAC | -0.171
3 | ACTTGACC | -0.228
4 | CAGCCGCG | 0.259
5 | CCGGGCAG | -0.144
6 | ATACAGTA | 0.126
7 | CATCTAGC | 0.0607
8 | ACCGGTTC | -0.292
9 | ATGAAGCG | 0.0289
10 | CACGTTCC | -0.0314
11 | CAAACACA | 0.114
12 | AGAGTAGA | 0.11
13 | AGGTCGCC | -0.00093
14 | CGCGACGA | 0.108
15 | CAAGCTAG | -0.189
16 | AGATCAGC | -0.04
17 | CCATTACC | -0.00731
18 | GAGAGTTA | -0.146
19 | CGAAAATA | 0.25
20 | ACTCGCGC | 0.224
21 | ATCTCTTC | 0.0306
22 | AGGCAAGA | 0.107
23 | AAACTTAT | 0.0945
24 | CTTTATTA | 0.00896
25 | CGACGACG | 0.0471

Row | Sequence | PBM E-score
26 | CATCCGCA | 0.25
27 | TGGGTCAA | -0.153
28 | CATTCTCA | 0.187
29 | TATATAAA | 0.213
30 | ACCTCACC | -0.128
31 | ACTCATGA | 0.12
32 | GTTGATGA | -0.0685
33 | AGGACGAC | -0.137
34 | CATACGCA | 0.138
35 | GATTTTGA | 0.216
36 | CACGGCCG | 0.338
37 | AATTTATG | 0.248
38 | AGATTACG | 0.0365
39 | TTTCCAAA | 0.052
40 | TATAATAA | 0.288
41 | AGACCTTA | -0.15
42 | CCAATGGG | -0.36
43 | AAAATACT | 0.14
44 | CAAGTCCG | -0.0822
45 | AAATATGT | 0.165
46 | CCCGTAGA | -0.254
47 | ACCACGGT | -0.259
48 | ACAATCGC | 0.142
49 | AGGTCTAA | -0.0298
50 | ACATGCCC | -0.168

Row | Sequence | PBM E-score
51 | ATGAATTG | 0.0321
52 | GCACCCCA | -0.114
53 | GTCAGCGA | -0.158
54 | ACGGGACG | 0.0549
55 | AATCAGGG | -0.289
56 | ATGAGTCA | -0.227
57 | CCCACCAG | -0.209
58 | ATATTCAG | 0.072
59 | AATTATGG | 0.0682
60 | CCAGCCCC | -0.256
61 | TGGTCAAA | 0.124
62 | CGGGTCAA | -0.162
63 | GTGTTGGA | -0.136
64 | CACCTTAA | -0.0294
65 | TACGTAAA | 0.189
66 | CATCGTAC | 0.0709
67 | GTCGACAC | 0.0998
68 | TGTGAACA | 0.0116
69 | AGGCGAAC | 0.145
70 | CTAATAAA | 0.0356
71 | GAGAAGCA | -0.066
72 | GGCTTTGA | 0.167
73 | CGACCCTC | -0.302
74 | AAGGCGTG | 0.179
75 | AACTAAGG | 0.194

Row | Sequence | PBM E-score
76 | GACGCCCA | 0.0231
77 | ACATCCCA | -0.193
78 | AGGCCAAT | -0.152
79 | CCGTTAGG | 0.0376
80 | AGCTAACA | -0.034
81 | ATCCCTAC | 0.132
82 | GAGAGGGA | -0.297
83 | CAATAGAC | 0.0676
84 | CCGTATTC | 0.246
85 | AGCTGACA | -0.0424
86 | AGCGGCCT | 0.0372
87 | CCTTTGCA | 0.0304
88 | GCTAAGTA | 0.0343
89 | ACAAGGGA | -0.144
90 | AGTTGTAG | 0.0593
91 | GCTGCGCA | -0.185
92 | ACGCTCGA | -0.0886
93 | CCTCCAAA | -0.0913
94 | ACGTCGGC | -0.153
95 | GCGTCACA | 0.0674
96 | AACATAGG | 0.0786
97 | CACACCGC | 0.00411
98 | TAAACTGA | 0.114
99 | AGTAAGAG | -0.166
100 | AAGTCCGG | -0.205

Row | Sequence | PBM E-score
101 | GATTCTAA | 0.00656
102 | GTCATTGA | -0.122
103 | AAATCGGA | -0.102
104 | ACCTATTC | -0.0399
105 | AAAGGCTA | 0.00059
106 | ACCGCACA | -0.0115
107 | ATAACTGC | 0.0227
108 | AGCAAGTC | -0.0501
109 | ACGGAGCT | 0.087
110 | AAGCCCCA | -0.307
111 | ATTTTCTG | -0.0455
112 | ATCTATCG | -0.0279
113 | AATCAGAG | 0.147
114 | AAAGTCGC | 0.202
115 | GGACTAAA | -0.0733
116 | CGATCGGC | 0.178
117 | CAAGAGAA | -0.0554
118 | ACGACGTC | -0.0957
119 | CGTACTGA | 0.131
120 | GTAACACA | -5e-05
121 | CGGACTGA | -0.0177
122 | AACAGTAG | -0.0144
123 | CGCCCCTA | 0.0337
124 | GCATCCGA | 0.00637
125 | AGTCGACC | -0.214

Row | Sequence | PBM E-score
126 | GCGAGAAC | -0.0327
127 | TACGGCCA | 0.214
128 | CCAAACGA | -0.00343
129 | CCCGAAGA | -0.219
130 | ATGGGCAG | 0.0407
131 | ACACCCCG | -0.157
132 | GCCTAGGA | -0.0911
133 | CAATTGAG | 0.164
134 | CTGCTTGC | -0.0347
135 | ATCTGTAA | -0.0573
136 | ACTTAGCT | -0.134
137 | ACCTGTCT | -0.147
138 | AACTAACG | 0.0939
139 | ACAGCACA | 0.121
140 | GCCCCGCA | 0.0316
141 | CGGCTTTA | 0.225
142 | CCAGAACC | -0.154
143 | AATTACCC | -0.19
144 | CCAAAGCA | -0.132
145 | ATCCTTGC | -0.0193
146 | AACCATTG | -0.0202
147 | CAGAATGA | 0.0394
148 | GAAATGAA | 0.112
149 | ACTACCTA | 0.0508
150 | GTGTAGAA | 0.0309

Row | Sequence | PBM E-score
151 | CTATAGAC | -0.0316
152 | CGACGAAG | 0.11
153 | AGCTTGGG | -0.175
154 | GGTTTGCA | -0.0784
155 | CCCTAGCA | -0.19
156 | GCTCTGCC | -0.205
157 | AGCAAACA | -0.00238
158 | CCAGGTCA | -0.325
159 | CAGCGTCA | -0.206
160 | GGGTTAAC | -0.0436
161 | GGATTCCC | -0.215
162 | CATTGAGA | 0.0216
163 | AGTTCCTG | -0.187
164 | CATTGCGA | 0.0588
165 | CGTTCAAA | 0.111
166 | CCTCTTAC | 0.0857
167 | TGGCTCAA | 0.00085
168 | AATCTGAT | 0.0789
169 | CTCATGCC | 0.193
170 | ACGACGGG | -0.0299
171 | CTTTTGTA | 0.0954
172 | AGCGAGAC | -0.147
